According to PubChem BioAssay AID588855 (National Center for Advancing Translational Sciences (NCATS), 2011):
In all, about 410,000 compounds went through this assay and about 5,000 (1.2%) were called active. This list was built around the results that the source calls inconclusive (neither active nor inactive); the mix of calls is not that of the screen. Calls come from the whole dose curve; as a rule, active = well fitted inhibition curve with a large enough effect; inconclusive = small, poorly fitted or top-dose-only effect; inactive = no such curve, though single readings can be large or run the other way. Potencies beside an inconclusive call are fits to weak or partial responses and may not hold up.

Assay: qHTS for Inhibitors of TGF-b; note: nearly all actives have a fitted effect of over 65% in size
Conditions: HepG2 CAGA-GFP TGF-b/SMAD3 reporter, GFP fluorescence, 18 h, TGF-beta stimulated, 500 pg/mL final; series mostly up to 46.1 µM; activity, negative = inhibition: at the top concentration
How it was run: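 Inhibition of TGF-beta-driven CAGA-GFP reporter expression in HEPG2 cells is measured by cellular GFP fluorescence after 18 h stimulation with 500 pg/mL recombinant TGF-beta in 1% FBS medium at 37 degrees C.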
% is set by controls: 0 for no effect and ±100 for the full control effect; potency is the fitted concentration of half-maximal effect; tags give direction and shape of the fitted curve.

Question: With Cc1nc(N2CCN(c3ccccn3)CC2)c2c(C)c(C(=O)Nc3ccccc3F)sc2n1 as the compound, how does the “activity, negative = inhibition” value read?
Answer: inactive: 6.81%

Question: For Cc1ccc(Cl)c(NC(=O)COC(=O)c2cc[n+]([O-])cc2)c1Cl, which “activity, negative = inhibition” value is on record?
Answer: inactive: -0.257%

Question: Which Potency does the source give for COc1cccc(-n2c(SCC(=O)Nc3cccc(Cl)c3)nc3c(oc4ccccc43)c2=O)c1 here?
Answer: inconclusive: 0.891 µM [inhibitor, full curve, poor fit]

Question: Which Potency does the source give for c1ccc(CCNCCCOc2cccc3ccccc23)cc1 here?
Answer: inconclusive: 22.4 µM [inhibitor, single point]

Question: Which Potency does the source give for Cc1c(NC(=O)CC(C)C)cccc1-c1nc2cccnc2s1 here?
Answer: inconclusive: 25.1 µM [inhibitor, single point]

Question: Which Potency does the source give for c1cc(-c2nn[nH]n2)ccc1CN1CCCCC1 here?
Answer: inconclusive: 1.58 µM [inhibitor, partial curve, poor fit]

Question: Which “activity, negative = inhibition” value does the source give for COc1ccc(CNC(=O)CNC(C)c2ccc(F)cc2)cc1 (stereo unspecified) here?
Answer: inactive: -3.34%

Question: For O=C(CSc1nccc(=O)[nH]1)c1ccccc1Br, which Potency is on record?
Answer: inconclusive: 11.2 µM [inhibitor, single point]

Question: For O=C(Cn1nc(-c2ccccc2)c2ccccc2c1=O)NCCO, which “activity, negative = inhibition” value is on record?
Answer: inactive: 12%

Question: For COc1ccc(N2C(S)=C(C#N)C(=O)NC2c2ccc(OC)c(OC)c2)cc1 (stereo unspecified), which “activity, negative = inhibition” value is on record?
Answer: inactive: -4.3%

Question: For OC(CNCCc1ccc(Cl)cc1Cl)COc1ccccc1 (stereo unspecified), which Potency is on record?
Answer: inconclusive: 25.1 µM [inhibitor, single point]

Question: Which “activity, negative = inhibition” value does the source give for COc1cc2[nH]cc(C(=O)NCc3cccs3)c(=O)c2cc1OC here?
Answer: inactive: 0.0529%

Question: Which Potency does the source give for CC(=O)c1cc(NC(=O)c2ccc(C)cc2)c(=O)oc1C here?
Answer: inconclusive: 22.4 µM [inhibitor, single point]

Question: With CCc1ccc(Nc2nnc(SCC(=O)NC(=O)c3cccn3C)s2)cc1 as the compound, how does the Potency read?
Answer: inconclusive: 35.5 µM [inhibitor, single point]

Question: With NC(Cc1ccc(C(F)(F)F)cc1)c1csc(Nc2ncccn2)n1 (stereo unspecified) as the compound, how does the “activity, negative = inhibition” value read?
Answer: inactive: 20.7%

Question: With Cc1c(Cl)cccc1NC(=O)Cn1cc(C(=O)C2CCCCC2)c2ccccc21 as the compound, how does the Potency read?
Answer: inconclusive: 3.16 µM [inhibitor, full curve, poor fit]

Question: Which Potency does the source give for Cc1ccc(NC(=O)CCC(=O)NNC(=O)COc2cccc3ccccc23)c(C)c1 here?
Answer: inconclusive: 31.6 µM [inhibitor, single point]

Question: Which Potency does the source give for CCSc1ncc(Cl)c(C(=O)Nc2ccc(S(=O)(=O)N3CCC(C)CC3)cc2)n1 here?
Answer: inconclusive: 14.1 µM [inhibitor, partial curve, poor fit]

Question: Which Potency does the source give for CC(=O)c1ccc(-c2nc3ccccc3n2C)o1 here?
Answer: inactive

Question: For CCCCN(CCCNC(=O)c1ccc(Sc2ccc(Cl)cc2)c(NC(C)=O)c1)c1ccccc1, which Potency is on record?
Answer: inconclusive: 6.31 µM [inhibitor, partial curve, poor fit]

Question: Which “activity, negative = inhibition” value does the source give for Cc1ccc(NC(=O)CSC2=Nc3ccccc3C3=NC(Cc4ccccc4)C(=O)N23)cc1C (stereo unspecified) here?
Answer: inactive: 6.58%

Question: For COc1ccc(Cc2nnc(NC(=O)c3cccc([N+](=O)[O-])c3C)s2)cc1, which “activity, negative = inhibition” value is on record?
Answer: inactive: 24.6%

Question: For CCOC(=O)c1c(-c2cccs2)csc1N, which Potency is on record?
Answer: inconclusive: 5.62 µM [inhibitor, partial curve]

Question: With CC(C)C(NC(=O)c1ccc(C(C)(C)C)cc1)C(=O)NCC(c1ccccc1)N(C)C (stereo unspecified) as the compound, how does the Potency read?
Answer: inconclusive: 10 µM [inhibitor, partial curve, poor fit]

Question: With C=CCc1c(NCCO)nc(C)[nH]c1=O as the compound, how does the Potency read?
Answer: inconclusive: 2.82 µM [inhibitor, partial curve]

Question: With COc1ccc(C2N(c3ccc(Cl)cc3)N=C(C(C)=O)N(C)N2C(C)=O)cc1 (stereo unspecified) as the compound, how does the Potency read?
Answer: inconclusive: 22.4 µM [inhibitor, single point]

Question: With CN(C(=O)COC(=O)/C=C/c1ccc2ccccc2n1)c1c(N)n(Cc2ccccc2)c(=O)[nH]c1=O as the compound, how does the “activity, negative = inhibition” value read?
Answer: inactive: -3.73%

Question: With COc1ccccc1-c1c(C)nn2c(NCCN3CCCC3)cc(C)nc12 as the compound, how does the Potency read?
Answer: inconclusive: 8.91 µM [inhibitor, partial curve]

Question: With CCC(=O)NC(c1cc(Cl)c2ccccc2c1O)C(C)C (stereo unspecified) as the compound, how does the Potency read?
Answer: inconclusive: 11.2 µM [inhibitor, partial curve, poor fit]

Question: For COc1ccc(-n2ncc3c(N4CCC(C)CC4)ncnc32)cc1, which “activity, negative = inhibition” value is on record?
Answer: inactive: 7.89%

Question: With Cc1sc2nc(CN3CCN(c4ccc(O)cc4)CC3)[nH]c(=O)c2c1C as the compound, how does the Potency read?
Answer: inconclusive: 11.2 µM [inhibitor, partial curve]

Question: Which “activity, negative = inhibition” value does the source give for Cc1cc(C(=O)NNc2ccc(F)cc2)no1 here?
Answer: inactive: -8.61%

Question: Which “activity, negative = inhibition” value does the source give for CCCn1nnnc1NCc1ccc(OC)cc1OC here?
Answer: inactive: 15.2%

Question: Which Potency does the source give for CCN1C(=O)c2ccccc2Sc2ccc(NC(=O)Nc3ccccc3OC)cc21 here?
Answer: inconclusive: 2.82 µM [inhibitor, full curve, poor fit]

Question: With CC(=O)NC(CC(=O)OC(C)C(=O)Nc1ccc(Cl)cn1)c1ccccc1 (stereo unspecified) as the compound, how does the “activity, negative = inhibition” value read?
Answer: inactive: -14.5%

Question: With COc1cc(SSc2cc(OC)cc([N+](=O)[O-])c2N)c(N)c([N+](=O)[O-])c1 as the compound, how does the Potency read?
Answer: inconclusive: 3.98 µM [inhibitor, full curve, poor fit]

Question: For CCC1=NN(C(=O)C(=O)Nc2ccc(OC)cc2)C(O)(C(F)(F)F)C1 (stereo unspecified), which Potency is on record?
Answer: inconclusive: 35.5 µM [inhibitor, single point]

Question: With CC(Oc1ccc(Br)cc1)C(=O)Nc1cc(S(=O)(=O)N2CCOCC2)ccc1N1CCCC1 (stereo unspecified) as the compound, how does the “activity, negative = inhibition” value read?
Answer: inactive: -4.44%

Question: For O=C(Cc1ccccc1)n1nc(-c2ccco2)nc1SCc1ccccc1, which “activity, negative = inhibition” value is on record?
Answer: inactive: 3.48%

Question: For CC1CCCCN1CCCNC(=O)c1[nH]c2ccccc2c1Sc1ccc(Cl)cc1 (stereo unspecified), which Potency is on record?
Answer: inconclusive: 35.5 µM [inhibitor, single point]

Question: Which Potency does the source give for COc1ccc(CCNc2nc(-c3ccncc3)cs2)cc1OC here?
Answer: inconclusive: 14.1 µM [inhibitor, single point]

Question: For CCCC[C@H](CN[C@@H](CNC)[C@H](C)CC)NCCC12CCC(CC1)C2, which Potency is on record?
Answer: inconclusive: 35.5 µM [inhibitor, single point]

Question: Which Potency does the source give for Cn1c(=O)c2c(nc(NCc3ccco3)n2C/C=C/c2ccccc2)n(C)c1=O here?
Answer: active: 3.98 µM

Question: Which Potency does the source give for CC(=O)c1cccc(NC(=O)C2=CC(c3ccc4c(c3)OCO4)=NS(=O)(=O)N2C)c1 here?
Answer: inactive

Question: Which Potency does the source give for O=C1NC(c2ccccc2)=C(c2nc3ccccc3s2)C(c2ccc(O)cc2)N1 (stereo unspecified) here?
Answer: inconclusive: 17.8 µM [inhibitor, partial curve, poor fit]

Question: Which “activity, negative = inhibition” value does the source give for c1cc2c(cc1Cc1cncc(Cc3ccc4c(c3)OCO4)c1)OCO2 here?
Answer: inactive: 21.8%

Question: Which “activity, negative = inhibition” value does the source give for Cn1cnc(S(=O)(=O)N2CCCCC2c2cc(C(=O)Nc3ccccc3Cl)no2)c1 (stereo unspecified) here?
Answer: inactive: 23.1%

Question: With COc1ccc(NC(=O)C(NC(=O)/C=C\c2ccc3c(c2)OCO3)c2ccc(C)cc2)cc1 (stereo unspecified) as the compound, how does the “activity, negative = inhibition” value read?
Answer: inactive: 8.98%

Question: With CCCCOc1ccc(-c2c(C#N)c(N)nc(SCC(N)=O)c2C#N)cc1 as the compound, how does the Potency read?
Answer: inconclusive: 35.5 µM [inhibitor, single point]

Question: Which Potency does the source give for CCc1ccc(-n2c(N3CCN(c4ccc(F)cc4)CC3)nc3ccccc3c2=O)cc1 here?
Answer: inconclusive: 22.4 µM [inhibitor, single point]

Question: With CCN(CC)c1nc(Nc2ccc(Cl)cc2)nc(OCC#N)n1 as the compound, how does the Potency read?
Answer: inconclusive: 35.5 µM [inhibitor, single point]

Question: Which Potency does the source give for COc1ccc(NC(=O)CSc2nnc(C)c3ccccc23)cc1 here?
Answer: inconclusive: 22.4 µM [inhibitor, single point]

Question: With CCOc1ccccc1C(=O)NCc1ccc2c(c1)OCO2 as the compound, how does the “activity, negative = inhibition” value read?
Answer: inactive: -6.57%

Question: With COc1ccc(C2NN=C(c3ccc(C)cc3)S2)cc1 (stereo unspecified) as the compound, how does the “activity, negative = inhibition” value read?
Answer: inactive: -8.06%

Question: Which Potency does the source give for Cc1ccc2c(Cl)c(C(=O)Nc3cccnc3)sc2c1 here?
Answer: inconclusive: 3.98 µM [inhibitor, single point]

Question: With Cc1ccc2c(c1)[C@H]1[C@H](CO2)[C@H](c2ccccc2)[C@]2(C)C(=O)Nc3cc(F)ccc3C(=O)N12 as the compound, how does the “activity, negative = inhibition” value read?
Answer: inactive: -28.2%

Question: For CC1CCN(C(c2ccc(F)cc2)c2sc3nc(-c4ccco4)nn3c2O)CC1 (stereo unspecified), which “activity, negative = inhibition” value is on record?
Answer: inactive: -11.6%

Question: Which Potency does the source give for COc1cccc(C(=O)CSc2nc3ccccc3n2CC(=O)N2CCOCC2)c1 here?
Answer: inconclusive: 35.5 µM [inhibitor, single point]

Question: With CC(=O)c1ccc(N2Cc3ccccc3/C2=N\C(=O)Nc2ccc(Cl)cc2)cc1 as the compound, how does the Potency read?
Answer: inconclusive: 15.8 µM [inhibitor, single point]

Question: For C/C(=N\NC(=O)c1ccccc1O)c1cccs1, which Potency is on record?
Answer: inconclusive: 3.98 µM [inhibitor, single point]

Question: For O=C(COCc1cc(-c2ccco2)on1)Nc1cc(Cl)ccc1O, which Potency is on record?
Answer: inconclusive: 4.47 µM [inhibitor, full curve, poor fit]

Question: With Cc1cc2c(c(C)c1CCO[C@@H]1O[C@H](CO)[C@@H](O)[C@H](O)[C@H]1O)C(=O)[C@@H](C)[C@@H]2O as the compound, how does the Potency read?
Answer: inconclusive: 35.5 µM [inhibitor, single point]

Question: Which Potency does the source give for COc1ccc(-c2nc(SCC(=O)NC3CCCC3)c(-c3ccc(F)cc3)[nH]2)cc1OC here?
Answer: inconclusive: 12.6 µM [inhibitor, partial curve]

Question: Which Potency does the source give for N#C/C(=C/c1ccc(Br)s1)C(=O)NCCc1c[nH]c2ccccc12 here?
Answer: inconclusive: 1.58 µM [inhibitor, partial curve, poor fit]

Question: With CC(C)(C)Cc1nc2ccccc2n1CCc1ccccc1 as the compound, how does the “activity, negative = inhibition” value read?
Answer: inactive: 1.32%

Question: Which Potency does the source give for CC(C)C[C@@H](CO)N(Cc1ccccc1)S(=O)(=O)N(Cc1ccccc1)[C@H](CO)CC(C)C here?
Answer: active: 11.2 µM

Question: Which Potency does the source give for CCCCCCCn1ccc(=N)cc1 here?
Answer: inconclusive: 35.5 µM [inhibitor, single point]

Question: Which Potency does the source give for Cc1c(C)n(CC(O)CN2CCOCC2)c2ccccc12 (stereo unspecified) here?
Answer: inconclusive: 11.2 µM [inhibitor, partial curve, poor fit]

Question: For COc1ccc(CNC(=O)c2cc3cccc(OC)c3oc2=N)cc1, which “activity, negative = inhibition” value is on record?
Answer: inactive: -2.3%

Question: Which Potency does the source give for CC(C)(Cc1cc(CC(C)(C)C(=O)O)cc(C(C)(C)C)c1)C(=O)O here?
Answer: inconclusive: 2.51 µM [inhibitor, full curve, poor fit]

Question: Which “activity, negative = inhibition” value does the source give for CCOc1ccc(OCC)c(NC(=O)C2CCCN(S(=O)(=O)c3cccs3)C2)c1 (stereo unspecified) here?
Answer: inactive: 5.71%
